Test results published in US20210369661A1, “METHODS AND COMPOSITIONS FOR TREATING AND RECOVERING FROM VIRAL INFECTIONS” (IMMUNOFLEX THERAPEUTICS INC., priority 2020, published 2021).

System: CDR-3 of T- and B-cell surface receptors (immune repertoire)
Experiment: Phase IV open label trial: immune repertoire changes by CDR-3 sequencing, healthy adults 60-70 years
Settings: for Diversity Index vs. visit number, Visit 4: Visit 4 = after 2 weeks of daily dosing
[1] = diversity index plot (example participant)

**Q.** With COc1cc(/C=C/C(=O)CC(=O)/C=C/c2ccc(O)c(OC)c2)ccc1O [CUR, Curcumin] as the compound, how does the “Diversity Index vs. visit number, Visit 4” value [1] read?
**A.** greatest change

**Q.** With CC(=O)N[C@@H](CS)C(=O)O [NAC, N-acetylcysteine] as the compound, how does the Post-Treatment (1 week after dosing stopped (day 29), trial results summary) read?
**A.** No effect

**Q.** And the “Participants showing Diversity Index increasing in sync with the supplement protocol” value (NAC 600 mg twice daily, 14 days)?
**A.** 4 out of 4

**Q.** What about the “Diversity Index vs. visit number, Visit 4” value [1] of the same compound?
**A.** greatest change

**Q.** And the “Diversity index (DI), Post-Treatment Effect” value (mean percent difference, time periods 0 d to 29 d, 7 d to 29 d, 21 d to 29 d)?
**A.** goes down

**Q.** Which results are given for CCCCCCCCCCCCCCCC(=O)NCCO [PEA, Palmitoylethanolamide]?
**A.** Diversity Index vs. visit number, Visit 5 (diversity index plot (example participant), Visit 5 = 1 week after dosing was stopped): huge increase; Alice clusters (ALICE significant clusters), Effect During Treatment (mean percent difference, 0 d to 21 d and 7 d to 21 d): decreases; Alice clusters (ALICE significant clusters), Post-Treatment Effect (mean percent difference, 0 d to 29 d, 7 d to 29 d, 21 d to 29 d): dramatic increase; During Treatment, Trend (oral daily dosing 14 days (day 7 to day 21), trial results summary): no effect
